Measurements as given in PubChem BioAssay (Tox21).
Several values for one entry are separate records, joined by “and”; a condition that tells them apart may be missing. Equal entries are not always repeated. The inconclusive results got no clear call from the source; some entries with a clear call stand among them for comparison. A potency beside an inconclusive call is a rough fit, not a confirmed value. Activity calls are given as the source filed them. Unless noted, calls come from the whole dose curve.

System: not listed separately
Assay: qHTS assay to identify small molecule agonists of the sonic hedgehog signaling (Shh) pathway (AID 1259368); note: nearly all actives have a fitted effect of over 15% in size;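 for activity change: NIH/3T3-derived 3T3Gli1-Luc cells carrying a stable Gli1-driven firefly luciferase reporter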
Conditions: NIH/3T3 Gli1-Luc reporter, luciferase, 24 h; series mostly up to 92.4 µM; activity change: at the top concentration
Method in brief: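 Steps: seed 3T3 Gli1-Luc cells, incubate 4 hr at 37 C, pin-transfer compounds in DMSO alongside a positive control, incubate 24 hr, add luciferase detection reagent, wait 30 min at room temperature, read luminescence.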
% is set by controls: 0 for no effect and ±100 for the full control effect; potency is the fitted concentration of half-maximal effect; tags give direction and shape of the fitted curve or compound fluorescence and quenching.

Row | Compound | Potency | activity change
1 | NNc1ccc(C(=O)O)cc1 | inconclusive: 31.1 µM [activator, partial curve] and active: 5.5 µM | –
2 | Cc1nc(-c2ccc(OCC(C)C)c(C#N)c2)sc1C(=O)O | inconclusive: 15 µM [activator, partial curve] | –
3 | N[C@@H](Cc1ccc(O)cc1)C(=O)O | – | inactive: -0.171% [at 8.39 µM, stronger effect = higher value]
4 | CC(=O)OCC(=O)[C@@]1(O)[C@H](OC(C)=O)C[C@H]2[C@@H]3CCC4=CC(=O)C=C[C@]4(C)[C@@]3(F)[C@@H](O)C[C@@]21C | – | inactive: -1.34% [at 42.5 µM, stronger effect = higher value]
5 | CC(C)=CCC[C@@](C)(O)[C@H]1CC=C(C)CC1 | – | inactive: 0.27% [at 42.5 µM, stronger effect = higher value]

System: not listed separately
Assay: qHTS assay to identify small molecule antagonists of the sonic hedgehog signaling (Shh) pathway (AID 1259369); note: nearly all actives have a fitted effect of over 45% in size
Conditions: NIH/3T3 Gli1-Luc reporter, Shh antagonist, luminescence 24 h; series mostly up to 92.4 µM; activity change, negative = inhibition: at the top concentration
Method in brief: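 Inhibition of Shh signalling is measured as reduced Gli1-response-element firefly luciferase output in an NIH/3T3-derived stable reporter clone stimulated with conditioned medium for 24hr.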

Row | Compound | Potency | activity change, negative = inhibition
6 | [Cl][Pt-2]([Cl])([Cl])[Cl] | inconclusive: 3.87 µM [inhibitor, full curve, poor fit] | –
7 | CCCCc1nc2cccnc2n1Cc1ccc(-c2ccccc2-c2nnn[nH]2)cc1 | inconclusive: 61.1 µM [inhibitor, single point] | –
8 | C=CC(=O)OCCOC(=O)CCC(=O)O | active: 61.1 µM | –
9 | CCCN[C@H]1CCc2nc(N)sc2C1 | inconclusive: 73.6 µM [inhibitor, partial curve, poor fit] | –
10 | CC1=CCC2C(C1)C2(C)C (configuration not stated) | active: 17.2 µM | –
11 | COc1cc(C(C)C)c2c(c1)S(=O)(=O)N(COc1cc(=O)n3cccc(OCCN4CCCCC4)c3n1)C2=O | inconclusive: 2.06 µM [inhibitor, full curve, poor fit] | –
12 | Cc1cccc(Oc2ccccc2)c1 | – | inactive: 0%
13 | CCCCC | inconclusive: 67.5 µM [inhibitor, single point] | –
14 | CC(C)[C@H]1CC[C@H](C)C[C@@H]1O | inconclusive: 0.698 µM [inhibitor, single point] | –

Target: Estrogen receptor beta (Homo sapiens) (UniProt Q92731)
Sequence of UniProt Q92731 (Q92731 whole entry, looked up): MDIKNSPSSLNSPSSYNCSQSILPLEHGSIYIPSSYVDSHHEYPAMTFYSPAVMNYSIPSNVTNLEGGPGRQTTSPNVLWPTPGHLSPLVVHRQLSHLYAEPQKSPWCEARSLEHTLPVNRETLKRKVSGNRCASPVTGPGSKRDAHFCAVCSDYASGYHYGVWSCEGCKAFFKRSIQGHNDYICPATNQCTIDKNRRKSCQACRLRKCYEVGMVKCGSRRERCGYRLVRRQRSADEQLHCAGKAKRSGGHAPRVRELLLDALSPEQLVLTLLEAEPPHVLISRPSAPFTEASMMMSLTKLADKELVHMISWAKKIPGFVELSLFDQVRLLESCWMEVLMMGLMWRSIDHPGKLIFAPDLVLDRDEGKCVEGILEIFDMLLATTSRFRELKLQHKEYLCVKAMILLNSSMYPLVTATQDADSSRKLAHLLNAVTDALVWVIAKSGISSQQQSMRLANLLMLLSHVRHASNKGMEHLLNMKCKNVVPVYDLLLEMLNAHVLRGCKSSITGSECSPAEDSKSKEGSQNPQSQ
Assay: qHTS assay to identify small molecule agonists of the estrogen receptor beta (ER-beta) signaling pathway (AID 1259377; active = well fitted activation curve with a large enough effect in the signal ratio in the repeat runs, not every such curve was filed as active; inconclusive = weak or mixed curves, or effect the other way; the % refers to the signal ratio)
Conditions: ER-beta-UAS-bla HEK293T, beta-lactamase FRET ratio, 16 h; activation: at 92.4 µM (top of the series) unless noted
Method in brief: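 Agonist mode cell assay in GripTite HEK293T cells expressing an ER-beta fusion that drives beta-lactamase from an Upstream Activator Sequence; 16 hr compound exposure at 37C, then 2 h LiveBLAzer B/G FRET substrate at room temperature, fluorescence read-out.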

Row | Compound | Potency | activation
15 | Cc1nc(-c2ccc(OCC(C)C)c(C#N)c2)sc1C(=O)O | inconclusive: 15 µM [rising, partial curve] | –
16 | CC(C)=CCC[C@@](C)(O)[C@H]1CC=C(C)CC1 | – | inconclusive: 1.38% [at 42.5 µM]
17 | Cc1cccc(Oc2ccccc2)c1 | inconclusive: 11.9 µM [rising, partial curve] | –
18 | O=C(O)C1(C(=O)Nc2ccc(Cl)cc2Cl)CC1 | inconclusive: 9.69 µM [rising, full curve] | –
19 | Cn1c(=O)c2[nH]c(Br)nc2n(C)c1=O | – | inactive: 8.88% [at 42.5 µM]

Target: Estrogen receptor beta (Homo sapiens) (UniProt Q92731)
Assay: qHTS assay to identify small molecule antagonists of the estrogen receptor beta (ER-beta) signaling pathway (AID 1259378; active = well fitted inhibition curve with a large enough effect in the signal ratio in the repeat runs, not every such curve was filed as active; inconclusive = weak or mixed curves, or effect the other way; inactive = no such curve, though single readings can be large or run the other way; the % refers to the signal ratio)
Conditions: ER-beta-UAS-bla HEK293T, beta-lactamase FRET ratio, 16 h; activity, negative = inhibition: at 92.4 µM (top of the series) unless noted
Method in brief: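 ER-beta-UAS-bla HEK293T (GripTite) cells in 2% charcoal-stripped FBS medium were preincubated 6 hr at 37C, dosed with compound, then stimulated with 1 nM E2 (final) for 16 hr; beta-lactamase reporter read by B/G FRET fluorescence after 2 hr substrate loading.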

Row | Compound | activity, negative = inhibition | Potency
20 | O=C(O)c1ccccc1Cl | inactive: 15% | –
21 | CC(C)(C)C1CCC(=O)CC1 | inactive: 24.9% | –
22 | [Cl][Pt-2]([Cl])([Cl])[Cl] | inconclusive: -28.7% | –
23 | CCCCc1nc2cccnc2n1Cc1ccc(-c2ccccc2-c2nnn[nH]2)cc1 | inconclusive: -21.7% | –
24 | Cc1nc(-c2ccc(OCC(C)C)c(C#N)c2)sc1C(=O)O | – | inconclusive: 6.68 µM [fluorescent, partial curve]
25 | Nc1cccc(N)c1 | – | inactive
26 | Cc1cccc(Oc2ccccc2)c1 | inconclusive: -32.4% | –
27 | C[C@H](CCC(=O)O)[C@H]1CC[C@H]2[C@@H]3[C@H](O)C[C@@H]4C[C@H](O)CC[C@]4(C)[C@H]3CC[C@]12C | inconclusive: -20.5% | –
28 | O=C(O)C1(C(=O)Nc2ccc(Cl)cc2Cl)CC1 | – | inconclusive: 10.9 µM [rising, partial curve]

System: not listed separately
Assay: qHTS assay to identify small molecule agonists of the estrogen receptor beta (ER-beta) signaling pathway - cell viability counter screen (AID 1259380; active = well fitted curve in the direction sought with a large enough effect in the repeat runs; inconclusive = weak or mixed curves; inactive = no such curve, though single readings can be large; an effect the other way counts as inactive or inconclusive; note: nearly all actives have a fitted effect of over 30% in size)
Conditions: ER-beta-bla HEK293T viability, CellTiter-Glo luminescence, 16 h; series mostly up to 92.4 µM; activity change, negative = cytotoxicity: at the top concentration
Method in brief: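 Same-well viability counter screen. Cells: ER-beta-UAS-bla HEK293T, plated 6 hr before compound, in 2% charcoal-stripped FBS. Compound exposure 16 hr, 37C; viability by CellTiter-Glo luminescence after 30 min at room temperature.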

Row | Compound | Potency | activity change, negative = cytotoxicity
29 | CCCCc1nc2cccnc2n1Cc1ccc(-c2ccccc2-c2nnn[nH]2)cc1 | inconclusive: 61.1 µM [cytotoxic, single point] | –
30 | COC(=O)C1=C(C)NC(COC(N)=O)=C(C(=O)OC(C)C)C1c1cccc(Cl)c1Cl (configuration not stated) | inconclusive: 33.5 µM [cytotoxic, single point] | –
31 | CCCCCCCCOc1ccc(C(=O)c2ccccc2)c(O)c1 | inconclusive: 30.6 µM [rising, partial curve] | –
32 | O=C(O)c1cccc(Cl)n1 | – | inactive: 3.79%

System: not listed separately
Assay: qHTS assay to identify small molecule antagonists of the estrogen receptor beta (ER-beta) signaling pathway - cell viability counter screen (AID 1259382; active = well fitted curve in the direction sought with a large enough effect in the repeat runs; inconclusive = weak or mixed curves; inactive = no such curve, though single readings can be large; an effect the other way counts as inactive or inconclusive; note: nearly all actives have a fitted effect of over 55% in size)
Conditions: ER-beta-UAS-bla HEK293T viability, CellTiter-Glo luminescence, 16 h; series mostly up to 92.4 µM; activity change, negative = cytotoxicity: at the top concentration
Method in brief: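 Following a 6 hr plating period, HEK293T cells carrying a UAS-driven beta-lactamase reporter under ER-beta control received compounds and 1nM E2 (final). After 16 hr at 37C and 2 hr substrate loading, CellTiter-Glo luminescence indicated viability.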

Row | Compound | Potency | activity change, negative = cytotoxicity
33 | CCCCc1nc2cccnc2n1Cc1ccc(-c2ccccc2-c2nnn[nH]2)cc1 | inconclusive: 68.6 µM [cytotoxic, partial curve, poor fit] | –
34 | N[C@@H](Cc1ccc(O)cc1)C(=O)O | – | inactive: 2.66% [at 8.39 µM]
35 | Cc1ccc(C)c(O)c1C | inactive | –
36 | Cc1cccc(Oc2ccccc2)c1 | inconclusive: 9.44 µM [cytotoxic, full curve] | –
37 | O=C(O)C1(C(=O)Nc2ccc(Cl)cc2Cl)CC1 | inconclusive: 19.3 µM [cytotoxic] | –
